Results taken from ChEMBL document CHEMBL4888484, “Replenishing the malaria drug discovery pipeline: Screening and hit evaluation of the MMV Hit Generation Library 1 (HGL1) against asexual blood stage Plasmodium falciparum ,using a nano luciferase reporter read-out” (2022).
In all, about 150,000 compounds went through this assay and about 540 (0.36%) showed an effect of 50% or more. Some of the results follow.

System: Plasmodium falciparum
Assay: Primary screen in NF54 nanoGlo assay, in single point, at 2uM, 72h; a lower Z score goes with more inhibition
Format: functional, Erythrocyte
Conditions: timepoint 72 hour

Compound | % Inhibition [%] | Z score
CC[C@@H](CO)N(Cc1ccc(C)s1)C(=O)Cc1ccc2c(c1)OCO2 | 4 | -0.49
Cc1cc(S(=O)(=O)N(C)C[C@H]2CCN(C)C2)c(F)cc1F | -4 | 0.37
C[C@@]1(O)CCN(C(=O)C2CCOCC2)[C@@H](c2ccccc2)[C@@H]1NC(=O)c1ccc(F)cc1 | -7 | 1.08
Cc1nc(CN2C[C@H]3CN(C4CCCCC4)C[C@@]3(C(=O)O)C2)cs1 | -4 | 0.68
COc1ccc([C@@H]2CCCN2Cc2cnc(OC)nc2C)nc1 | -17 | 3.66
CC(C)OCCS(=O)(=O)N(C)Cc1cscn1 | -6 | 0.91
CC[C@]1(C(=O)OC)N[C@@H](c2ccc(F)c(Cl)c2)[C@H]2C(=O)N(C)C(=O)[C@H]21 | -9 | 0.81
COc1cc2c(cc1OC)[C@H](C)N(c1ncnc3onc(C)c13)CC2 | -2 | 0.28
CC(NC(=O)C1COc2ccccc2O1)c1ccccn1 (stereo unspecified) | 6 | -0.72
Cc1nc(N[C@H]2COC[C@@H]2O)ccc1Br | -10 | 1.17
Cc1cn2cc(C(=O)NCCn3nc(C(F)(F)F)cc3C)ccc2n1 | -12 | 2.29
O=C(Nc1ccc(N2CCCC2=O)cc1)N[C@H]1CCOC1 | 4 | -0.52
Cn1nc(-c2ccccn2)cc1NC(=O)N1CCN(C2CCCCC2)CC1 | -9 | 1.13
O=C([C@H]1CC12CCNCC2)N(Cc1ccccc1)Cc1ccccc1 | -9 | 0.89
O=C(c1noc2c1CCCC2)N1C[C@H]2COCC[C@@]2(O)[C@@H]2COCC[C@@H]21 | -19 | 1.84
CCN(CC1CCOC1)C(=O)NCC(c1ccco1)N1CCCC1 (stereo unspecified) | -5 | 0.53
O=C(NCC1=CCCC1)NC[C@@H]1C[C@H](c2ccccc2)CO1 | -2 | 0.27
Cc1nnc(NC(=O)c2scnc2C2CC2)s1 | 1 | -0.07
Cc1cc(C)cc(NC(=O)c2scc(-c3cccc(F)c3)c2S(=O)(=O)N(C)c2ccccc2)c1 | -5 | 0.89
C[C@@H](CN(C)c1ccnc(Cc2ccccc2)n1)C(=O)O | -2 | 0.3
CC(=O)NC(C)(C)C(=O)N1CC[C@@]2(CCCN(C3CCCCC3)C2=O)C1 | 7 | -1.22
CCc1nnc(CN(C(=O)c2nn3cc(C)cnc3c2Cl)C(C)C)o1 | -10 | 0.94
O=C(NC(c1ccccc1)c1ccccc1)c1cc2n(n1)C[C@@H](O)CNC2=O | -13 | 2.48
Nc1c(-c2ccc(Cl)cc2)cnc2c(-c3ccccc3)c(COc3ccccc3)nn12 | -5 | 0.85
COc1ccc(N2CCN(C3=NC(=O)[C@@H](C#N)C4(CCCCC4)N3)CC2)cc1 | 6 | -0.78
CCOc1ccc(N(C)CC(=O)NC[C@H]2CCCO2)cc1 | 1 | -0.08
O=C(NCC1CCN(C(=O)c2ccoc2)CC1)c1cccc(Cl)c1 | -8 | 1.18

Compound | % Inhibition [%] | Z score
Cc1nc2c(c(N3CCCC3)n1)CCN(C(=O)Cc1csc(C)n1)C2 | -19 | 1.71
CC(C)(C)NC(=O)COc1ccnc(C(F)(F)F)n1 | -2 | 0.28
Cc1cccnc1[C@H](C1CC1)n1cnc2cn(C)nc2c1=O | -13 | 2.48
Cc1nc(N2CCNC(=O)C2)nc2cc(S(C)(=O)=O)ccc12 | -6 | 0.98
CCCc1nnsc1C(=O)N[C@H]1CC[C@H](Oc2cnccn2)CC1 | 9 | -0.98
Cc1ccn(CC(=O)N2CC(F)(F)C[C@H]2Cn2cc(C(=O)NCc3ccccc3)nn2)n1 | 34 | -3.87
O=C(c1cc(-c2ccco2)[nH]n1)N1CCC2(C1)OCCO2 | -10 | 1.81
COc1ccc(C(=O)N(CC2CC2)C2CC2)nn1 | -15 | 1.33
Cc1ncccc1CNc1ccc(F)c(N2CCS(=O)(=O)CC2)c1 | -10 | 1.3
CC(C)CN(C)C(=O)[C@@H]1CN(c2ncnc3ccsc23)CCO1 | 19 | -2.59
O=C(Nc1ccccc1F)N1CC(F)(F)C[C@H]1CN1CCCCCC1 | -10 | 1.79
CC(C)C[C@@H](C(N)=O)n1cc(-c2ncc[nH]2)nn1 | 7 | -1.18
CCn1c(CNC(=O)C2CCC2)nc2c1CN(S(=O)(=O)c1ccc(F)cc1)CC2 | -4 | 0.46
C=C1C2(C(=O)N3CCN(c4ccccc4F)CC3)CCC(C2)C1(C)C (stereo unspecified) | 5 | -0.57
Cc1ccc(-n2cc(-c3ccccc3)nc2NC(=O)CN(C(=O)Cc2ccccc2)C(C)C)cc1F | 2 | -0.39
CCC(NC(=O)CCN1Cc2ccccc2C1)[C@H]1C[C@H](O)C1 (stereo partly specified) | -15 | 2.65
O[C@@]1(CN2CCC(COc3ccc4c(c3)CCC4)CC2)CCCNC1 | 41 | -4.19
Cc1nccc(NC(=O)NCc2ccco2)c1Cl | -4 | 0.34
CCN1CCO[C@@H](CNCc2cnc(N3CCOCC3)nc2)C1 | -22 | 4.05
CC(C)[C@H](NC(=O)Nc1ccccc1)C(=O)N1CCC(C(N)=O)CC1 | -14 | 1.3
CC(C)N1CCC(CC(=O)N[C@@H](CO)c2ccccc2)CC1 | 5 | -0.62
O=S(=O)(CCC1CC1)N[C@H]1CCN(CC2CC2)C1 | -6 | 0.84
Cn1ncc(Cl)c1C(=O)N(C1CCCCC1)C1CCCCC1 | 33 | -4.74
C[C@@]12CCCN1C(=O)N(C1CCN(c3c(F)cccc3F)C1=O)C2=O (stereo partly specified) | -13 | 1.73
OCc1sncc1-c1cccc(C2CCC2)c1 | -8 | 0.69
Cc1nc(NCc2sccc2C)n(C)n1 | 1 | -0.15
